# Data taken from PubChem BioAssay AID624296 (National Center for Advancing Translational Sciences (NCATS), 2012).
# “And” between values parts separate entries of the source, which are not always exact repeats. Equal values may be shown once. In all, about 350,000 compounds went through this assay and about 9,900 (2.8%) were called active. Inconclusive means that the source gave no clear call. Such entries were picked first, then a sample of the others. The call rests on the fitted dose curve; in most records, active means well fitted activation curve with a large enough effect; inconclusive means small, poorly fitted or top-dose-only effect; inactive means no such curve, though single readings can be large or run the other way. Potencies of inconclusive entries are doubtful fits and often do not repeat.
# Assay: A quantitative high throughput screen for small molecules that induce DNA re-replication in MCF 10a normal breast cells. Further: nearly all actives have a fitted effect of over 50% in size. On activity, positive = re-replication: % of control where 0% means no effect.
# Conditions: MCF 10A DNA re-replication, Hoechst nuclear intensity, 48 h; activity, positive = re-replication: at 46.1 µM (top of the series)
# Potency means the concentration at half of the fitted maximal effect; tags describe the fitted curve by direction and shape.
Structure (SMILES),Potency,"activity, positive = re-replication"
CCOC(=O)C1=C(c2ccccc2)c2ccc(OC)cc2N(S(=O)(=O)C(F)(F)F)C1C(=O)OCC (centres undefined),"inconclusive: 0.116 µM [activator, full curve, poor fit]",
CN(C)c1nc2n(c(=O)n1)C(C#N)CS2 (centres undefined),,inactive: 5.11%
CCCCn1c(N)c(N(CC(C)C)C(=O)c2cc3c(s2)CCCCC3)c(=O)[nH]c1=O,,inactive: -2.17%
Cc1ccc(N2C(=O)N(CC(=O)c3cc(C)ccc3C)C(=O)C2C)cc1 (centres undefined),"inconclusive: 23.1 µM [activator, partial curve, poor fit]",
COc1ccc(S(=O)(=O)N(C)c2ccc(C(=O)N3CCCC3)cc2)cc1OC,,inactive: -2.5%
Cn1c(=O)c2c(nc(NCCNC(=O)c3ccco3)n2Cc2ccc(F)cc2)n(C)c1=O,,inactive: 1.93%
CCn1c(CNC(=O)c2cc(OC)c(OC)c(OC)c2)cc2cc(C)ccc21,"inconclusive: 20.6 µM [activator, single point]",
COc1nn(-c2ccccc2)c(=O)c(Cl)c1Cl,active: 3.66 µM,
CCOc1ccc(N=C2NC(=O)C(CC(=O)Nc3ccccc3)S2)cc1 (centres undefined),"inconclusive: 6.51 µM [activator, partial curve, poor fit]",
Cn1c(-c2ccccc2)cc2ccccc21,,inactive: -17.2%
COC(=O)[C@@H]1CC[C@H](C)[C@@H](c2ccc(C)cc2)N1C(=O)c1ccc(/C=N/O[C@@H](C)c2cn([C@H](CO)Cc3ccccc3)nn2)cc1,"inconclusive: 18.4 µM [activator, partial curve]",
C=CCc1ccc(OCC(O)CN2CCN(Cc3ccc(Cl)cc3)CC2)c(OC)c1 (centres undefined),"inconclusive: 29.1 µM [activator, single point]",
CN(CC(=O)Nc1cccc(F)c1)C(=O)c1ccccc1OCCOc1ccccc1,,inactive: 7.48%
Cc1cc(=O)[nH]c(SCC(=O)c2ccc(O)c(O)c2)n1,"inconclusive: 29.1 µM [activator, single point]",
CCOC(=O)c1sc(Nc2ccc(OCC)cc2)nc1C,"inconclusive: 0.92 µM [activator, single point]",
COc1ccc2nc(NC(=O)C3CCCN(S(=O)(=O)c4cccc5nsnc45)C3)sc2c1 (centres undefined),"inconclusive: 0.0046 µM [activator, full curve, poor fit]",
COc1cc(CN2CCN(C(C)C)C(CCO)C2)ccc1OCc1ccccc1 (centres undefined),"inconclusive: 16.4 µM [activator, partial curve, poor fit]",
CN1CCN(S(=O)(=O)c2cccc(C(=O)Nc3ccccc3N3CCCCC3)c2)CC1,"inconclusive: 10.3 µM [activator, partial curve]",
Cc1cc(C)n(-c2nc(SCCN(C)C)c3c4c(sc3n2)CCCC4)n1,"inconclusive: 18.4 µM [activator, partial curve, poor fit]",
O=C(COC(=O)c1ccc(Cl)cc1[N+](=O)[O-])NNC(=O)c1cccs1,,inactive: -0.859%
COc1ccccc1Nc1nc(NCCC(C)C)nc(N)c1[N+](=O)[O-],,inactive: 5.31%
CC(=O)N1CCN(S(=O)(=O)c2cccc(C(=O)NCCc3ccc(Cl)cc3)c2)CC1,"inconclusive: 23.1 µM [activator, partial curve, poor fit]",

Structure (SMILES),Potency,"activity, positive = re-replication"
Cc1nn(-c2cccc(C(F)(F)F)c2)c(=O)c2ccccc12,,inactive: -2.2%
Cc1cccc(/C=N/NC(=O)c2cccc(Cl)c2)n1,"inconclusive: 20.6 µM [activator, single point]",
Nc1sc(-c2ccccc2)cc1C(=O)N/N=C/c1ccc(Cl)cc1,"inconclusive: 29.1 µM [activator, single point]",
CCn1c(=N)n(CC(=O)c2ccc(Cl)c(Cl)c2)c2ccccc21,active: 25.9 µM,
COc1ccc(NS(=O)(=O)c2cc(NC(=O)C3CCCCC3)ccc2N2CCOCC2)cc1,"inconclusive: 29.1 µM [activator, single point]",
CCN(CC)S(=O)(=O)c1ccc(OC(C)C)c(NC(=O)c2c3c(nc4ccccc24)CCN(Cc2ccccc2)C3)c1,"inconclusive: 9.2 µM [activator, partial curve, poor fit] and inconclusive: 4.11 µM [activator, full curve, poor fit]",
Cc1nc2ncccn2c1-c1csc(NCc2ccco2)n1,,inactive: 21.1%
COCCCNC(=S)N(CCO)Cc1cc2cc3c(cc2[nH]c1=O)OCO3,"inconclusive: 6.51 µM [activator, partial curve, poor fit]",
Cc1cc(-c2nnc3n2N=C(c2ccccc2)CS3)n[nH]1,,inactive: -14.8%
N#Cc1ccccc1S(=O)(=O)N1CCN(C(=O)c2cn(-c3ccccc3)nc2-c2cccnc2)CC1,,inactive: 4.01%
Cc1ccc(-c2cc(C(=O)O)c3ccccc3n2)c(C)c1,"inconclusive: 23.1 µM [activator, partial curve, poor fit]",
CCNc1nc(Oc2ccc(OC)cc2)cc(C(F)(F)F)n1,,inactive: 9.55%
CCOC(=O)Nc1sc2nc(C)cc(C)c2c1-n1cccc1,,inactive: 26.6%
COC(=O)c1cc(NC(=O)C(C)c2ccc(CC(C)C)cc2)ccc1O (centres undefined),active: 14.6 µM,
COc1ccc(NC(=O)C2Cc3cc(S(=O)(=O)N4CCCCC4)ccc3N2C(C)=O)cc1Cl (centres undefined),"inconclusive: 32.6 µM [activator, partial curve, poor fit]",
CCOC(=O)c1ccc(NC(=O)CCc2nc(-c3ccccc3)no2)cc1,"inconclusive: 18.4 µM [activator, partial curve, poor fit]",
COCCNC(=O)c1oc2ccc3c(c2c1C)C(O)CC(C)(C)O3 (centres undefined),,inactive: -2.58%
CC(C)c1ccc(OCCCCCN2CCOCC2)cc1,"inconclusive: 23.1 µM [activator, single point]",
Cc1cc(C)nc(SCC(=O)NN)n1,,inactive: -2.17%
Cc1ccc(NC(=O)c2ccc(S(=O)(=O)NCc3ccco3)cc2)nc1,"inconclusive: 23.1 µM [activator, single point]",
CC(C)(C)C(=O)NCC12C=CC(O1)C1C(=O)N(c3ccccc3)C(=O)C12 (centres undefined),"inconclusive: 29.1 µM [activator, single point]",
Cc1ccc(OCCNS(=O)(=O)c2ccc(Cl)cc2)cc1,"inconclusive: 25.9 µM [activator, single point]",
